Test results from the supplement of paper PMC5919970.
Structures can show the parent of a compound that is named as a salt. The full ranking holds about 2,000 compounds; the median of “fractional viability relative to vehicle” is about 0.92, and the lowest 2% start at about 0.11. This is one part of the list.

Test system: TYKNU
Test: fractional viability relative to vehicle; TYKNU is a high-grade serous ovarian cancer line; higher = less growth inhibition
Settings: 72 h, genotype: OPA1 knockout (sgOPA1 #2)
In short: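 Drug treatment lasted 72 h, with cells grown at 37 °C in 5% CO2 in RPMI 1640 supplemented with 10% FBS. Beforehand, TYKNU control cells or their lentiCRISPRv2 knockout derivatives had been seeded at 500 cells per well into drug-stamped 384-well plates carrying a ~2100-compound library at 2 or 10 μM, in duplicate. Viability came from Cell Titer Glo luminescence, with averaged duplicate treatment wells normalised to duplicate control wells in the same plate position.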

Structure (SMILES) | fractional viability (2uM) | fractional viability (10uM)
CCCNC(=O)NS(=O)(=O)c1ccc(Cl)cc1 [Chlorpropamide] | 1.01 | 0.884
O=C(Cc1ccccc1)Nc1nnc(CCSCCc2nnc(NC(=O)Cc3ccccc3)s2)s1 | 1.05 | 0.971
COc1ccc(-c2nc(N3CCOCC3)c3sc(CN(C)c4ncc(C(=O)NO)cn4)cc3n2)cn1 | 0.118 | 0.115
COc1cc(-c2ncn(/C=C\C(=O)OC(C)C)n2)cc(C(F)(F)F)c1 | 0.22 | 0.259
c1ccc2c(CCNc3ccc(Nc4ccncc4)cc3)c[nH]c2c1 | 0.485 | 0.15
NCCCCCC(=O)O [_6-__-_Aminocaproic acid] | 1.02 | 1.23
CC(C)CCNC(=O)[C@H](CC(C)C)NC(=O)[C@H]1O[C@@H]1C(=O)O [Loxistatin Acid (E-64C)] | 0.866 | 0.945
COc1ccc2c(Oc3ccc(NC(=O)c4c(C)n(CC(C)(C)O)n(-c5ccccc5)c4=O)nc3)ccnc2c1 | 1.13 | 0.834
COc1c(C)cnc(Cn2cnc3c(Cl)nc(N)nc32)c1C | 0.697 | 0.522
Cc1nc2c([nH]1)-c1ccccc1N(C(=O)c1ccc(NC(=O)c3ccccc3-c3ccccc3)cc1)CC2 [Conivaptan HCl] | 1.06 | 1.03
CCCCCCCCCCCCCCCC(=O)OC[C@H](O)[C@H]1OC(=O)C(O)=C1O [L-Ascorbyl 6-palmitate] | 0.923 | 0.885
Cc1csc(-c2nnc(Nc3ccc(Oc4ncccc4-c4ccnc(N)n4)cc3)c3ccccc23)c1 | 0.777 | 0.953
Nc1nc2c(ncn2COC(CO)CO)c(=O)[nH]1 [Ganciclovir] | 0.978 | 0.808
CCOC(=O)[C@H]1O[C@@H]1C(=O)N[C@@H](CC(C)C)C(=O)NCCC(C)C [Aloxistatin] | 0.883 | 0.823
C=CC(=O)Nc1cccc(Sc2nc(Nc3ccc(N4CCN(C)CC4)cc3)ncc2Cl)c1 | 1.31 | 0.1
CCCCNc1ncc(C(=O)NCc2ccc(-n3ccnc3)cc2)c(NC2CCC(O)CC2)n1 (stereo unspecified) | 1.36 | 0.337
COCC(=O)NC/C=C/c1ccc2ncnc(Nc3ccc(Oc4ccc(C)nc4)c(C)c3)c2c1 | 1.29 | 1.17
Cn1c(=O)c2c(ncn2CC2OCCO2)n(C)c1=O [Doxofylline] | 0.964 | 0.91
Oc1cc2c(cc1O)C(c1ccccc1)CNCC2 (stereo unspecified) | 0.958 | 0.87
Cc1ccc([C@@H]2O[C@H](CO)[C@@H](O)[C@H](O)[C@H]2O)cc1Cc1ccc(-c2ccc(F)cc2)s1 [Canagliflozin] | 0.931 | 0.94
CC(C)(C)c1cc(C(C)(C)C)c(NC(=O)c2c[nH]c3ccccc3c2=O)cc1O [Ivacaftor (VX-770)] | 1.2 | 0.682
CC(C)NC[C@@H](C(=O)N1CCN(c2ncnc3c2[C@H](C)C[C@H]3O)CC1)c1ccc(Cl)cc1 | 0.858 | 0.82
COc1cccc(C=NCCN=Cc2cccc(OC)c2[O-])c1[O-].[Cl-].[Mn+3] | 0.832 | 0.818
CC1CCN(CC[C@H]2CCCN2S(=O)(=O)c2cccc(O)c2)CC1 | 0.927 | 0.923
Nc1ncnc2c1ncn2[C@@H]1O[C@H](CO)[C@@H](O)[C@@H]1O [Vidarabine] | 1.34 | 1.07
CCOc1nc2cccc(C(=O)O)c2n1Cc1ccc(-c2ccccc2-c2nnn[nH]2)cc1 [Candesartan] | 0.939 | 0.793

Structure (SMILES) | fractional viability (2uM) | fractional viability (10uM)
C=CC(=O)Nc1cccc(Oc2nc(Nc3ccc(N4CCN(C)CC4)cc3)ncc2Cl)c1 | 0.825 | 0.5
C[C@@](Cc1ccc(O)c(O)c1)(NN)C(=O)O [Carbidopa] | 0.983 | 0.921
O=C(Nc1cccnc1)c1cc(-c2ccnc(F)c2)ccc1OCc1ccccc1 | 1.47 | 0.684
COc1ccc(Cl)cc1NC(=O)Nc1cc(C)nc2ccccc12 | 1.44 | 0.492
CN(C)CCC(c1ccc(Br)cc1)c1ccccn1 (stereo unspecified) [Brompheniramine hydrogen maleate] | 0.959 | 1.07
O=C1CC[C@@H](C(=O)N2CSC[C@H]2C(=O)O)N1 [Pidotimod] | 0.974 | 1.02
c1ccc(-c2ccc(C(c3ccccc3)n3ccnc3)cc2)cc1 (stereo unspecified) [Bifonazole] | 0.927 | 0.935
Oc1c(Cl)cc(Cl)c2cccnc12 [Chloroxine] | 1.02 | 0.406
COc1cc(Nc2c(C#N)cnc3cc(OCCCN4CCN(C)CC4)c(OC)cc23)c(Cl)cc1Cl [Bosutinib (SKI-606)] | 0.995 | 0.284
CCCCc1oc2ccc(NS(C)(=O)=O)cc2c1C(=O)c1ccc(OCCCN(CCCC)CCCC)cc1 [Dronedarone HCl] | 0.835 | 0.106
CCC1(c2ccccc2)C(=O)NCNC1=O [Primidone] | 0.969 | 0.974
Cc1cc(F)c(Nc2ncnc3cc(OCc4ccccc4)ccc23)cc1O | 1.35 | 1.43
Cn1cncc1[C@@](N)(c1ccc(Cl)cc1)c1ccc2c(c1)c(-c1cccc(Cl)c1)cc(=O)n2C [Tipifarnib] | 0.743 | 0.667
Cc1cc(C#N)cc(C)c1Oc1nc(Nc2ccc(C#N)cc2)nc(N)c1Br [Etravirine (TMC125)] | 0.831 | 0.472
O=c1[nH]c(=O)n([C@H]2C[C@H](O)[C@@H](CO)O2)cc1C(F)(F)F [Trifluridine] | 0.982 | 0.755
CC(C)n1cnc2c(NCCc3ccc(O)cc3)nc(-c3csc4ccccc34)nc21 [StemRegenin 1 (SR1)] | 1.1 | 0.769
Cc1nc2c(O)cccc2c(=O)[nH]1 | 0.925 | 0.903
O=C(NNc1ccccc1)c1ccncc1 | 0.769 | 0.792
Cc1cccc(-c2[nH]ncc2-c2ccc3ncccc3n2)n1 | 1.13 | 1.48
CN(Cc1ccc(C(C)(C)C)cc1)Cc1cccc2ccccc12 [Butenafine HCl] | 1.01 | 0.817
O=C(NCCCNc1nc(Nc2cccc(NC(=O)N3CCCC3)c2)ncc1I)c1cccs1 | 1.15 | 0.316
S=c1[nH]cnc2nc[nH]c12 [Mercaptopurine (6-MP)] | 1.23 | 1.03
NS(=O)(=O)c1ccc(NC(=O)Nc2ccc(F)cc2)cc1 | 0.849 | 0.925
O=C(c1ccc(F)cc1)N1CCC[C@H](c2nc(-c3ccc(F)cc3)no2)C1 | 1.05 | 0.824
Cc1ccc(Cl)cc1N(CC(=O)Nc1c(F)cccc1F)S(C)(=O)=O | 0.841 | 0.641
O=C1Nc2ccc(I)cc2/C1=C/c1cc(Br)c(O)c(Br)c1 | 1.04 | 0.798

Structure (SMILES) | fractional viability (2uM) | fractional viability (10uM)
O=C1N=C(O)NC1(c1ccccc1)c1ccccc1 [Phenytoin sodium] | 1.01 | 0.969
COc1cc(NS(=O)(=O)c2ccc(N)cc2)nc(OC)n1 [Sulphadimethoxine] | 1.18 | 0.91
CC1(C)O[C@@H]2[C@@H](CO[C@@]3(COS(N)(=O)=O)OC(C)(C)O[C@@H]23)O1 [Topiramate] | 1.24 | 1.04
CN(C)c1cc(NC(=O)CNC(C)(C)C)c(O)c2c1C[C@H]1C[C@H]3[C@H](N(C)C)C(O)=C(C(N)=O)C(=O)[C@@]3(O)C(O)=C1C2=O [Tigecycline] | 1.1 | 0.751
CCNc1nc(Nc2cc(F)c(C(=O)N3CCOCC3)cc2OC)ncc1C(F)(F)F | 0.943 | 0.896
CN(C)c1ccc(-c2nc3ncc(Cl)c(N4CCN(CC(=O)Nc5nccs5)CC4)c3[nH]2)cc1 | 1.11 | 0.621
NC1=NCC2c3ccccc3Cc3ccccc3N12 (stereo unspecified) [Epinastine HCl] | 0.96 | 0.832
NC(=O)N1c2ccccc2CC(=O)c2ccccc21 [Oxcarbazepine] | 1.04 | 0.689
Cc1nc2ccc(NC(=O)Nc3ccnc4cccnc34)cc2o1 | 0.834 | 0.759
Oc1nc(-c2ccc(C(F)(F)F)cc2)nc2c1CSCC2 | 1.13 | 0.683
O=C(O)c1cc2cccc([N+](=O)[O-])c2[nH]1 | 0.884 | 0.819
COc1ccc(CCc2nc3cc(-c4c(C)noc4C)ccc3n2C[C@H](C)N2CCOCC2)cc1Cl | 0.813 | 0.639
CNCc1ccc(-c2[nH]c3cc(F)cc4c3c2CCNC4=O)cc1 | 1.22 | 1.29
CCCNC(C)C(=O)Nc1c(C)csc1C(=O)OC (stereo unspecified) [Articaine HCl] | 0.957 | 0.937
CCNC(=O)c1noc(-c2cc(C(C)C)c(O)cc2O)c1-c1ccc(CN2CCOCC2)cc1 | 0.627 | 0.642
CC(=O)C1=C(O)C=C2Oc3c(C(C)=O)c(O)c(C)c(O)c3C2(C)C1=O (single isomer, unassigned; (+)) [(+)-Usniacin] | 1.13 | 1
COc1ccc2c(c1)C(=O)N(CCc1ccc(S(=O)(=O)NC(=O)NC3CCCCC3)cc1)C(=O)C2(C)C [Gliquidone] | 1.14 | 0.966
C=CCc1ccc(O)c(-c2cc(CC=C)ccc2O)c1 [Magnolol] | 1.13 | 0.919
NS(=O)(=O)Cc1noc2ccccc12 [Zonisamide] | 1.33 | 0.841
CC(=O)c1cc([N+](=O)[O-])c(Sc2ccc(F)cc2F)s1 | 0.985 | 0.596
Cc1cn([C@H]2C[C@H](N=[N+]=[N-])[C@@H](CO)O2)c(=O)[nH]c1=O [Zidovudine] | 0.84 | 0.905
COc1ccc([C@@H]2Sc3ccccc3N(CCN(C)C)C(=O)[C@@H]2OC(C)=O)cc1 [Diltiazem HCl] | 1.24 | 1.1
Cc1ccc2nc(NCCN)c3ncc(C)n3c2c1 | 0.683 | 0.296
Cc1c(NC(=O)OC[C@@H]2COCCN2)cn2ncnc(Nc3ccc4c(cnn4Cc4cccc(F)c4)c3)c12 | 1.3 | 0.847
CC(C[N+](C)(C)C)OC(N)=O (stereo unspecified) [Bethanechol chloride] | 0.991 | 0.946
COc1ccc(C[C@H](NC(=O)[C@H](C)NC(=O)CN2CCOCC2)C(=O)N[C@@H](Cc2ccccc2)C(=O)[C@@]2(C)CO2)cc1 | 0.149 | 0.144
